According to the supplement of paper PMC7125110:
± gives the standard error. Variants at the background level are over-represented here.

B1: glmS ribozyme (parent)
chain: AUAAAAGCGCCAGAACUACAGAAAUGUAGUUGACGAGGAGGAGGUUUAUCGAAUUUUCGGCGGAUGCCUCCAAA

Experiments:
Conditions in all cases: with glucosamine-6-phosphate
glucosamine-6-phosphate [1] = variants of: B1; assay: self-cleavage kobs at 640 uM GlcN6P; higher = faster cleavage; RNA array
In short: (§1)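 The measurements used barcoded ribozyme variants on sequenced MiSeq chips, transcribed in situ by E. coli RNA polymerase and tracked at 37 °C with a hybridised Cy3 probe. Glucosamine-6-phosphate, 40 μM to 10 mM in HEPES/KCl/Mg(OAc)2 buffer, was flowed in while tiles were imaged over ~14 h. Baseline-normalised signals, also normalised to non-cleaving reference variants, gave per-tile medians that were fit to one- or two-exponential decays for kobs. kcat and KM resulted from weighted Michaelis–Menten fits across concentrations.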

glucosamine-6-phosphate [2] = variants of: B1; assay: self-cleavage kobs at 2500 uM GlcN6P; higher = faster cleavage; RNA array
In short: as §1

glucosamine-6-phosphate [3] = variants of: B1; assay: self-cleavage kobs at 160 uM GlcN6P; higher = faster cleavage; RNA array
In short: as §1

glucosamine-6-phosphate [4] = variants of: B1; assay: self-cleavage kobs at 10000 uM GlcN6P; higher = faster cleavage; RNA array
In short: as §1

Variant	self-cleavage kobs at 640 uM GlcN6P (glucosamine-6-phosphate [1]) [s⁻¹]	self-cleavage kobs at 2500 uM GlcN6P (glucosamine-6-phosphate [2]) [s⁻¹]	self-cleavage kobs at 160 uM GlcN6P (glucosamine-6-phosphate [3]) [s⁻¹]	self-cleavage kobs at 10000 uM GlcN6P (glucosamine-6-phosphate [4]) [s⁻¹]
A6G U30G G43C G60U C71G	< 1e-05			
A6G U31G G37U	< 1e-05	< 1e-05		
A6G U46A C50U A53U U57G	< 1e-05	< 1e-05	< 1e-05	
A6U A14U U45C	< 1e-05			
A6U A33G U54A	< 1e-05			
A6U A36C G51C	< 1e-05			
A6U A39U G43U A48G C71U	< 1e-05	< 1e-05	< 1e-05	
A6U A42U	< 1e-05	< 1e-05	< 1e-05	
A6U C8A G41U U65G	< 1e-05	< 1e-05		
A6U C8A G43U A53C G62C	< 1e-05			
A6U C8U C16G G40A G59A C61G C71U	< 1e-05			
A6U C10G U65G	< 1e-05	< 1e-05		
A6U C11G A14C G41U	< 1e-05			
A6U C11U G40C U57C	< 1e-05	< 1e-05	< 1e-05	
A6U C16U	6.36e-05 ± 7.9e-06	0.000118 ± 1.2e-05	2.54e-05 ± 9.5e-06	0.00021 ± 1.7e-05
A6U C61G C67A	0.000106 ± 3.9e-05	0.00149 ± 0.00065		
A6U G7C G13U A36C	< 1e-05			
A6U G29C U49A	< 1e-05			
A6U G29U A52C	< 1e-05			
A6U G32C C67G	< 1e-05	< 1e-05		
A6U G43U C70G	< 1e-05			
A6U G63A	< 1e-05		< 1e-05	< 1e-05

Variant	self-cleavage kobs at 640 uM GlcN6P (glucosamine-6-phosphate [1]) [s⁻¹]	self-cleavage kobs at 2500 uM GlcN6P (glucosamine-6-phosphate [2]) [s⁻¹]	self-cleavage kobs at 160 uM GlcN6P (glucosamine-6-phosphate [3]) [s⁻¹]	self-cleavage kobs at 10000 uM GlcN6P (glucosamine-6-phosphate [4]) [s⁻¹]
A6U U30G G62U	< 1e-05		< 1e-05	
A6U U31A G35U A42U G62U	< 1e-05	< 1e-05		
A6U U55G	4.48e-05 ± 1e-05	0.000118 ± 1.9e-05		0.000416 ± 6.4e-05
G7A A12G G35U	< 1e-05		< 1e-05	
G7A A14C U30G A36C G38U A52G C71U	< 1e-05			
G7A A15G	< 1e-05		< 1e-05	
G7A A15U U56G C58A	< 1e-05			
G7A A39U A48C G59A	< 1e-05	< 1e-05		
G7A C10A C11U A36C A39G	< 1e-05	< 1e-05		
G7A C10G A14U C50U U55G	< 1e-05		< 1e-05	
G7A C16G G26U G29A C34A G59C	< 1e-05	< 1e-05		
G7A C16U G62A U65G C71U	< 1e-05			
G7A C67A	< 1e-05		< 1e-05	
G7A C67G U69A	< 1e-05	< 1e-05		< 1e-05
G7A G9C A33U G66C	< 1e-05	< 1e-05		
G7A G32A U65G	< 1e-05			
G7A G37U U45G	< 1e-05			
G7A G40U C58U	< 1e-05	< 1e-05		
G7A G51C	< 1e-05		< 1e-05	
G7A U31G G59C C67A	< 1e-05	< 1e-05		
G7A U45G C50U	< 1e-05	< 1e-05		
G7A U54A G60U C68A	< 1e-05	< 1e-05	< 1e-05	

Variant	self-cleavage kobs at 640 uM GlcN6P (glucosamine-6-phosphate [1]) [s⁻¹]	self-cleavage kobs at 2500 uM GlcN6P (glucosamine-6-phosphate [2]) [s⁻¹]	self-cleavage kobs at 160 uM GlcN6P (glucosamine-6-phosphate [3]) [s⁻¹]	self-cleavage kobs at 10000 uM GlcN6P (glucosamine-6-phosphate [4]) [s⁻¹]
G7A U55A	< 1e-05			
G7C A15G G40U G41A C67U	< 1e-05			
G7C A15U U55G G60A	< 1e-05	< 1e-05	< 1e-05	
G7C A33C G51A G62U	< 1e-05			
G7C A48C	< 1e-05	< 1e-05	< 1e-05	< 1e-05
G7C C8U	< 1e-05			
G7C C10G A15C C16A U54A	< 1e-05	< 1e-05		
G7C C11A U31A A52G	< 1e-05			
G7C C34A G43U G44U U46G	< 1e-05			
G7C C34G A64U U69A	< 1e-05	< 1e-05		
G7C C34U G40C	< 1e-05	< 1e-05		
G7C C58G	< 1e-05			
G7C G13C U31A U49C	< 1e-05			< 1e-05
G7C G29U	< 1e-05	< 1e-05	< 1e-05	< 1e-05
G7C G29U C70A	< 1e-05		< 1e-05	
G7C G32C A42G C61U A64G	< 1e-05	< 1e-05		
G7C G35A A42G	< 1e-05	< 1e-05		
G7C G41C A52U	< 1e-05			
G7C U30G G43A	< 1e-05			
G7C U31A G35U U65G	< 1e-05	< 1e-05	< 1e-05	< 1e-05
G7C U69A C70U	< 1e-05			
